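Interpolation was linear, between the two tested concentrations surrounding the appropriate level; five concentrations were tested over 48 hours in 96-well plates. GI50 is the concentration that inhibits growth by half. The concentration for full growth arrest is given as TGI.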
System: NCI-H322M lung
Test: NCI anticancer screen, dose series, 48 h

## COc1cc2c(cc1OC)C(Sc1ccc(C)cc1)c1c(nc(N)c(C#N)c1N)O2 (configuration not stated)
  GI50: 1540 nM
  TGI: 2890 nM

From PubChem BioAssay (NCI)
